Experimental data from the BET-seq Pho4 binding data (Le et al. 2018).
This is one part of the list. The energies were worked out here from pooled read counts, against the library average; single values are noisy.

Target: T1, Pho4 (S. cerevisiae) (UniProt P07270)
T1 sequence: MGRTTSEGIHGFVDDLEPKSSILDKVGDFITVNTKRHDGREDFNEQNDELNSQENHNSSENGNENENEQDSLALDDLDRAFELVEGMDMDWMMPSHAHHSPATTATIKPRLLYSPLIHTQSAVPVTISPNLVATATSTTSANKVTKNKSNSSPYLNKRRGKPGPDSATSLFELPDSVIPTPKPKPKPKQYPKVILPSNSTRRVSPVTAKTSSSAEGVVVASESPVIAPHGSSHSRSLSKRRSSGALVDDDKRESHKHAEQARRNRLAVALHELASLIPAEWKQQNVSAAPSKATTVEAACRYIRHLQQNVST
Test: relative binding free energy (BET-seq); higher = weaker binding
Conditions: reference: library average

Relative binding free energy, 0.04 kcal/mol:
TTCTGCACGTGTGGTC, GTTTGCACGTGATCTA, ATGCACACGTGTGCGG, GGCGGCACGTGTGGTG, ATGGCCACGTGCGAGG, GTTGTCACGTGCTTGG, TTAGTCACGTGGTTTG

Relative binding free energy, 0.18 kcal/mol:
GTGCTCACGTGTTGTG, AAAGTCACGTGTGTGT, GTAATCACGTGGTGGC, TAAGTCACGTGATTAA

Relative binding free energy, -0.24 kcal/mol:
ATTGGCACGTGTTCGA

Relative binding free energy, 0.17 kcal/mol:
TCAGTCACGTGGACGG, AGTTTCACGTGGGAAT, TCTATCACGTGTAGGG

Relative binding free energy, 0.34 kcal/mol:
TTTTTCACGTGGTCGG

Relative binding free energy, 0.39 kcal/mol:
GTTCTCACGTGGATTG

Relative binding free energy, 0.1 kcal/mol:
GTTAGCACGTGATGTG, GTATTCACGTGGGCGA, GGGCGCACGTGTTGGC, GTTGTCACGTGGTCGC, TTCGGCACGTGAGGAG, GTCGTCACGTGGCTTG, CGAATCACGTGTTGGG

Relative binding free energy, 0.01 kcal/mol:
ATTATCACGTGTTCAG, CGGGTCACGTGGGCGC, TGGTCCACGTGGTGTA, TTAGTCACGTGCTGGT, AGCGGCACGTGACGTG, GCGTCCACGTGGAGGG, TGAGACACGTGCTTGG

Relative binding free energy, -0.15 kcal/mol:
CTTGGCACGTGGTGGC, GATGGCACGTGGGATG, CGGGGCACGTGTTTCG, ATGTGCACGTGGGTTC

Relative binding free energy, -0.08 kcal/mol:
ATAGGCACGTGGATTA, ATCATCACGTGGGGGT, CGTTGCACGTGTTACG, CTGTGCACGTGGCGTA, TAGCGCACGTGTTTGA

Relative binding free energy, 0.41 kcal/mol:
AGTATCACGTGAGGAT

Relative binding free energy, 0.44 kcal/mol:
GGTTTCACGTGAATTG

Relative binding free energy, 0.25 kcal/mol:
TGTTTCACGTGGAATC

Relative binding free energy, 0.24 kcal/mol:
CGAGTCACGTGTACGG, TTTAGCACGTGAACTG, GTTAACACGTGAGCGG, TGATTCACGTGTGTCT, GTCTACACGTGTGTTA, CTACTCACGTGTGTGT, TATCACACGTGTTTAG, GTGTACACGTGAATGA

Relative binding free energy, 0.05 kcal/mol:
AAGTACACGTGGTCGG, TGGAACACGTGTGGCA, TGAGACACGTGTGGCA, TTCTGCACGTGTAGAG, TGCGTCACGTGGTTCT, GAGTACACGTGTGTTT, TGTAACACGTGTGAGG

Relative binding free energy, 0.14 kcal/mol:
TGTTGCACGTGTATGT, GTGTGCACGTGATCGA, CACTTCACGTGGGGGG, CTTTGCACGTGAGGGG

Relative binding free energy, -0.26 kcal/mol:
TATCCCACGTGGGGGT

Relative binding free energy, 0.37 kcal/mol:
ATTGTCACGTGAGCTG

Relative binding free energy, -0.05 kcal/mol:
TTATGCACGTGTGGCT, TTGGACACGTGGGGAG

Relative binding free energy, -0.21 kcal/mol:
TGTTGCACGTGGGCGG

Relative binding free energy, -0.22 kcal/mol:
TAGGGCACGTGGGTCC, CAGGGCACGTGGGTTT

Relative binding free energy, 0.16 kcal/mol:
CCGGTCACGTGAGTGT, AAATACACGTGTGAGG, TCAGTCACGTGTGGAG, ACTGTCACGTGTTTGA, CATTGCACGTGGAGGC, TGATTCACGTGTTCTT, TCCGTCACGTGTTGGA, GGGTACACGTGCTGGA

Relative binding free energy, 0.31 kcal/mol:
CTTTTCACGTGTCGGA, CGGTTCACGTGGAGGC, CTGTACACGTGTTAAA, AGGTTCACGTGAAGTT

Relative binding free energy, -0.19 kcal/mol:
ATGGGCACGTGGTATA

Relative binding free energy, 0.47 kcal/mol:
TAGCTCACGTGATGGT

Relative binding free energy, 0.06 kcal/mol:
AAGCTCACGTGGGGCG, GGCGTCACGTGGGAGG, AGAAGCACGTGATATG

Relative binding free energy, 0.33 kcal/mol:
TGGCTCACGTGTAATT, TTCTTCACGTGGAGTC

Relative binding free energy, 0.19 kcal/mol:
TTTTGCACGTGGAATT, CTATTCACGTGGGCTG, CGGGTCACGTGTCTGG, AATTACACGTGTCTTG, TTGATCACGTGTGATG

Relative binding free energy, 0.29 kcal/mol:
GATTTCACGTGTGTAC

Relative binding free energy, 0.4 kcal/mol:
GGTCTCACGTGAGCGG, GGTTTCACGTGTGGAA

Relative binding free energy, 0.12 kcal/mol:
GGCATCACGTGGGGAA, CTATTCACGTGGTATG, TAGCGCACGTGAGTTT, GTCAGCACGTGTTAGG, CGTCGCACGTGTTTTT, TATTACACGTGTCGAT

Relative binding free energy, -0.02 kcal/mol:
AGGGGCACGTGTGGTA, ATTCGCACGTGTGGCT, CTAGTCACGTGGTTTA, TGGGACACGTGTGCGG, ATCGGCACGTGGACGT, ATGAACACGTGGTTCG, TCTAGCACGTGCTGTG

Relative binding free energy, -0.23 kcal/mol:
TTCGGCACGTGGTGCT, CGCGGCACGTGGGGGA

Relative binding free energy, -0.1 kcal/mol:
TGTTGCACGTGGGATT, TTCGGCACGTGTATGT, AGTACCACGTGTGTGT, ATTAGCACGTGTGCAT, TAGTGCACGTGGTCGC

Relative binding free energy, -0.09 kcal/mol:
TTATGCACGTGGTAAA, TTTGCCACGTGCGAGG, AGTAGCACGTGTTCGA, GTGTACACGTGGGGCC, TTGTCCACGTGGGCTT

Relative binding free energy, 0.49 kcal/mol:
GATTTCACGTGAGTTA

Relative binding free energy, -0.18 kcal/mol:
AGGAGCACGTGTGTTG, GAGGGCACGTGGGTAG

Relative binding free energy, 0.13 kcal/mol:
TATTACACGTGATTCT, TACATCACGTGGAGGT, AGTCTCACGTGTTTTA

Relative binding free energy, -0.29 kcal/mol:
AAGCACACGTGGGGGG

Relative binding free energy, 0.15 kcal/mol:
GGGGTCACGTGTGTAT, GTAGTCACGTGCGGGT, TGGTACACGTGTGAGT

Relative binding free energy, -0.06 kcal/mol:
GTTTGCACGTGTTCGA, TGTGGCACGTGTCTTT, GATCGCACGTGGGAGG

Relative binding free energy, 0.27 kcal/mol:
GTTATCACGTGGGCTC

Relative binding free energy, 0.5 kcal/mol:
GGTTTCACGTGGACAA, TATTTCACGTGAGAGT

Relative binding free energy, -0.17 kcal/mol:
CGGGGCACGTGGGATC

Relative binding free energy, 0.07 kcal/mol:
AGTCTCACGTGGGTGC, TGGTGCACGTGTGAGG, GAGTCCACGTGTGTGG, TAGGTCACGTGCGTTG, GGGAGCACGTGGAATT, GAGAGCACGTGTGATT, GTTCACACGTGTATGG, ATTATCACGTGGGTAT, GGGGACACGTGTTGTC, GCAGGCACGTGAGGGA

Relative binding free energy, 0.36 kcal/mol:
GGGGTCACGTGAGGAG, TATTTCACGTGAAGTC

Relative binding free energy, 0.2 kcal/mol:
ATTAACACGTGAATTG, GGTTGCACGTGAGTTG, ACGGTCACGTGTGTTC, AAGTTCACGTGGGGTT

Relative binding free energy, -0.04 kcal/mol:
TTGATCACGTGCTATG, ATTTACACGTGGATGA, GTCAGCACGTGCGGTA, ATTCGCACGTGCAGGT, GGTGTCACGTGCCAGG, TAAGGCACGTGATATT

Relative binding free energy, 0.02 kcal/mol:
AGAGTCACGTGGTGCG, TTGTCCACGTGGCAGG, TAGTACACGTGTTTGT, TAGGTCACGTGGTTAG, GTGCGCACGTGGGAGC, GATCACACGTGGTGTT

Relative binding free energy, 0.45 kcal/mol:
GGCTTCACGTGAGGCG, TGGCTCACGTGAGGTG

Relative binding free energy, 0.28 kcal/mol:
AGTTTCACGTGGTAAG, AGCATCACGTGATAGG

Relative binding free energy, 0.21 kcal/mol:
GCGATCACGTGGAGTG, ACTGGCACGTGTAAAG, TGTTTCACGTGGCGTG

Relative binding free energy, -0.01 kcal/mol:
TGAGGCACGTGTATTA, TCGGTCACGTGTATGA, ATGTGCACGTGTGTGC, TATTACACGTGTTATG

Relative binding free energy, -0.16 kcal/mol:
ATCAACACGTGGGTGT, CTGTGCACGTGGTTTG, TGAAGCACGTGGGTGG

Relative binding free energy, -0.11 kcal/mol:
TGAGGCACGTGGAGTA, CGTTACACGTGCGTGT, TTGTCCACGTGGTATT, CTTTGCACGTGGGGGG, AGAGGCACGTGATATT, AAGCGCACGTGGTATT, TGTTCCACGTGGGCTG

Relative binding free energy, 0.08 kcal/mol:
AAGAGCACGTGGACGG, AAAAGCACGTGTTCGG, TTCCTCACGTGGGGTG, GCAAGCACGTGTGAGG

Relative binding free energy, 0.09 kcal/mol:
TGAAGCACGTGGATCG, GGTGGCACGTGTTATC, TGCAGCACGTGATTTG, TTACTCACGTGTGTTA, TACTGCACGTGTCGTT, AGTCACACGTGGTTGG, ACTTACACGTGGGAGG

Relative binding free energy, 0.11 kcal/mol:
TTTGACACGTGAGCTT, AATTTCACGTGTATTA, TGGGACACGTGAGATG

Relative binding free energy, -0.27 kcal/mol:
ATTCGCACGTGGAGTG, TATGGCACGTGGGACG, ATTAACACGTGGGTGG

Relative binding free energy, -0.14 kcal/mol:
AGTGGCACGTGTGCGG, AGCAGCACGTGTGGGA

Relative binding free energy, -0.03 kcal/mol:
TACGTCACGTGGGGTT, TAAGGCACGTGTAGTC, GTTAGCACGTGGTTAC

Relative binding free energy, -0.07 kcal/mol:
ATGGGCACGTGTGACG, AATAACACGTGTAGGG

Relative binding free energy, 0.35 kcal/mol:
GTTTACACGTGAGGTG, GTTCTCACGTGGAGAT

Relative binding free energy, 0.26 kcal/mol:
TATTTCACGTGGAGTC

Relative binding free energy, -0.13 kcal/mol:
GTAGGCACGTGGCATT

Relative binding free energy, 0.22 kcal/mol:
ATTCTCACGTGTTATG, TAGATCACGTGAGTAT, TACGTCACGTGGAATG, GATAGCACGTGGACGT

Relative binding free energy, 0.32 kcal/mol:
GAGGTCACGTGAGGTT, ATTTTCACGTGTCATT

Relative binding free energy, 0.03 kcal/mol:
AAGTGCACGTGCTGGT, TTAGACACGTGGGTTC, CTTGTCACGTGCTTTT

Relative binding free energy, -0.2 kcal/mol:
ATGCGCACGTGGGGCA

Relative binding free energy, 0.3 kcal/mol:
TGTTTCACGTGACGTA

Relative binding free energy, 0 kcal/mol:
TATGACACGTGCATTG, ATCTGCACGTGTGTGT, ATGTGCACGTGTATTT, TTAGTCACGTGTCCGT
